# Assay results: PubChem BioAssay AID652104 (National Center for Advancing Translational Sciences (NCATS), 2013)
# Values joined by “and” are separate entries in the source; they are usually repeats but may differ in a detail not shown here. Identical values can stand only once. Among all 410,000 compounds or so, about 7,200 (1.8%) were called active. The inconclusive results got no clear call from the source; some entries with a clear call stand among them for comparison. The call rests on the fitted dose curve; in most records, active means well fitted activation curve with a large enough effect; inconclusive means small, poorly fitted or top-dose-only effect, or another doubt; inactive means no such curve, though single readings can be large or run the other way. A potency beside an inconclusive call is a rough fit, not a confirmed value.
# Assay: qHTS of TDP-43 Inhibitors; further: nearly all actives have a fitted effect of over 50% in size; on growth rescue (activation): % of control where 0% means no effect
# Conditions: TDP-43 expressing yeast growth rescue, BacTiter-Glo, 24 h; growth rescue (activation): at 46.1 µM (top of the series) unless noted
# Method in brief: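 Galactose-induced TDP-43 yeast, OD600=0.02, compound pinned; 24 hr, 30 deg C; BacTiter-Glo luminescence for growth. Inhibitors of TDP-43 toxicity read as activators.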
# Potency means the concentration at half of the fitted maximal effect; tags describe the fitted curve by direction and shape.
Compound,Potency,growth rescue (activation)
COC(=O)C[C@H]1C=C[C@@H](NC(=O)Cc2cccnc2)[C@@H](CO)O1,inactive,
Cc1cccnc1NC(=O)Nc1cccc(C(F)(F)F)c1,"inconclusive: 2.82 µM [activator, partial curve]",
CC(CC(=O)Nc1ncc([N+](=O)[O-])s1)c1ccccc1 (centres undefined),"inconclusive: 14.1 µM [activator, single point]",
CCCn1nnnc1SCC(=O)Nc1nnc(CC)s1,inactive,
COc1cccc(/C=C2\SC(N3CCCC(C)C3)=NC2=O)c1OC (centres undefined),"inconclusive: 35.5 µM [activator, partial curve]",
COc1ccc(N2CCN(C(=O)CSc3nc(C)cs3)CC2)cc1,inactive,
COC(=O)c1scc(-c2ccc(C)cc2)c1S(=O)(=O)N1CCN(c2cccc(OC)c2)CC1,"inconclusive: 20 µM [activator, single point]",
Nc1ccc2c(c1)-c1ccccc1S(=O)(=O)N2,inactive,
O=C(Nc1cccc(Cl)c1)c1ccc(F)c(S(=O)(=O)NCc2cccs2)c1,"inconclusive: 35.5 µM [activator, partial curve]",
Cc1ccc(-c2noc(CN3CCN(c4ccccc4F)CC3)n2)cc1,"inconclusive: 6.31 µM [activator, partial curve, poor fit]",
COC(=O)c1ccc(-c2n[nH]c(=O)c3ccccc23)cc1,"inconclusive: 7.94 µM [activator, partial curve]",
CN1CCc2c(sc3c2C(=O)NC(c2ccc(OC(=O)c4ccc(C(C)(C)C)cc4)cc2)N3)C1 (centres undefined),"inconclusive: 35.5 µM [activator, partial curve]",
COc1ccc(Cc2c(-c3cccc(Br)c3)nc3ccc(Br)cn23)c(C)c1,"inconclusive: 39.8 µM [activator, partial curve, poor fit]",
CCC(C(=O)Nc1cc(OC)cc(OC)c1)n1nc(-c2ccc(C)c(C)c2)ccc1=O (centres undefined),active: 28.2 µM,
Cc1nc2scc(C)n2c(=O)c1S(=O)(=O)Nc1ccc(N2CCOCC2)c(Cl)c1,"inconclusive: 14.1 µM [activator, single point]",
Cc1ccc(Cl)cc1-n1c(=O)cc(N2CC(C)OC(C)C2)[nH]c1=O (centres undefined),inactive,
O=C(CSCc1cccc(F)c1)NCc1ccccc1,"inconclusive: 12.6 µM [activator, partial curve]",
Cc1ccc(S(=O)(=O)Nc2cc3c(cc2NCc2ccccc2)n(C)c(=O)n3C)c(C)c1,inactive,
N#C/C(=C(/O)c1cccs1)c1nnc2n1CCCCC2,"inconclusive: 31.6 µM [activator, single point]",
CCc1cccc(NC(=O)CCC(=O)N2CCSc3ccccc32)c1,"inconclusive: 11.2 µM [activator, partial curve] and inconclusive: 12.6 µM [activator, partial curve]",
CCOc1ccccc1/C=c1\sc2ncnn2c1=O,"inconclusive: 6.31 µM [activator, single point]",
CCC(=O)Nc1nc2ccccc2n1Cc1ccccc1C,"inconclusive: 12.6 µM [activator, single point]",
CCC(C)NC(=O)c1cc(-c2cccc(OC)c2)on1 (centres undefined),"inconclusive: 17.8 µM [activator, partial curve]",

Compound,Potency,growth rescue (activation)
CSc1nc(N2CCOCC2)c2c3c(sc2n1)CCC3,"inconclusive: 12.6 µM [activator, partial curve]",
Cc1nnc2ccc(N3CCN(c4cccc(C(F)(F)F)c4)CC3)nn12,"inconclusive: 22.4 µM [activator, single point]",
Cc1noc(C)c1CSCC(=O)Nc1cc(Cl)ccc1N1CCCCC1,"inconclusive: 11.2 µM [activator, partial curve]",
O=C(COC(=O)c1ccccc1O)NCC1COc2ccccc2O1 (centres undefined),inactive,
O=C(CCl)Nc1ccccc1Sc1ccc(Cl)cc1,active: 11.2 µM,
CCOc1ccc(Br)cc1S(=O)(=O)Nc1ccccc1N1CCOCC1,"inconclusive: 31.6 µM [activator, single point]",
COCCCNc1oc(/C=C/c2cc(OC)c(OC)c(OC)c2)nc1C#N,"inconclusive: 35.5 µM [activator, single point]",
COc1cccc(-c2nnc(SCC(=O)N(C(C)C)C(C)C)o2)c1,"inconclusive: 17.8 µM [activator, single point]",
c1ccc(-c2nc3ccccc3nc2N2CCOCC2)cc1,"inconclusive: 11.2 µM [activator, partial curve]",
O=C(NCCc1cccc(Cl)c1)c1cccs1,"inconclusive: 4.47 µM [activator, partial curve]",
CCOC(=O)N1CCN(C(=O)c2ccc3c(c2)sc2nc(-c4ccccc4)cn23)CC1,"inconclusive: 35.5 µM [activator, single point]",
CC(C)(C)c1ccc(-c2conc2N)cc1,"inconclusive: 12.6 µM [activator, single point]",
S=C(NNc1ccc2ccccc2c1)NC1CCCCC1,"inconclusive: 22.4 µM [activator, partial curve]",
CCOc1ccccc1NC(=O)C1CCCN1C(=O)c1cccs1 (centres undefined),"inconclusive: 3.98 µM [activator, full curve]",
Cc1cc2ccccc2n1-c1ccc(C(=O)N2CCC(C(=O)NCc3ccc(Cl)cc3)CC2)s1,inactive,
CCN(CC)C(=O)c1c(-c2ccccc2)c(-c2ccccc2)nn(C)c1=O,inactive,
COc1ccc(-c2oc3ccccc3c2C#CC(C)(C)O)cc1,"inconclusive: 35.5 µM [activator, single point]",
CC(=NNC(=S)N1CCCCCC1)c1ccccn1,,inconclusive: -90.9% [activator]
CCCOc1ccc(-c2cc(C(=O)NCC3CCCO3)c3ccccc3n2)cc1 (centres undefined),"inconclusive: 14.1 µM [activator, single point]",
COc1cnn(Cc2ccccc2)c(=O)c1SCc1ccccc1,"inconclusive: 31.6 µM [activator, single point]",
CCOC(=O)c1c(C)[nH]c(CCC(=O)NCc2ccc(CC)cc2)c1C,inactive,
O=C(OCC(=O)N1CCOCC1)c1ccc2[nH]c3c(c2c1)CCCC3,inactive,
O=C1NC(Nc2nc3ccccc3s2)(C(F)(F)F)C(=O)N1C1CCCCC1 (centres undefined),"inconclusive: 31.6 µM [activator, single point]",

Compound,Potency,growth rescue (activation)
Cc1cccc(NC(=S)NC(=O)c2ccco2)c1C,"inconclusive: 12.6 µM [activator, partial curve]",
CC(=O)Nc1nn(CC(C)C)c2nc3ccc(C)cc3cc12,inactive,
NC(=O)c1ccccc1NC(=O)c1ccc(-c2ccc(Br)cc2)o1,inactive,
Cc1oc2cc([N+](=O)[O-])c(O)c([N+](=O)[O-])c2c1C(=O)c1ccc(Cl)cc1,"inconclusive: 4.47 µM [activator, full curve]",
CCN(CC)CCCNC(=O)c1ccc(-c2nc(CN3CCc4ccccc43)c(C)o2)cc1,"inconclusive: 35.5 µM [activator, partial curve, poor fit]",
CC(=O)c1c(C)[nH]c(C(=O)OCc2cccc(C)c2)c1C,"inconclusive: 17.8 µM [activator, single point]",
CC(=O)Nc1cccc2c1C(=O)N(c1cccc(C)c1)C2=O,"inconclusive: 12.6 µM [activator, partial curve]",
O=C(Nc1ccc(C(=O)OCc2cc(=O)n3nc(C4CC4)sc3n2)cc1)c1ccc(F)cc1,inactive,
CCOc1ccc(C(=O)NCC(=O)N2CCc3ccccc3C2)cc1OCC,"inconclusive: 12.6 µM [activator, partial curve]",
O=C(c1ccc(Cl)c(S(=O)(=O)N2CCOCC2)c1)N(Cc1ccco1)Cc1cccs1,"inconclusive: 35.5 µM [activator, partial curve, poor fit]",
O=C(Nc1cccc(Cl)c1)c1c(NC(=O)C(F)(F)F)sc2c1CCCC2,"inconclusive: 35.5 µM [activator, single point]",
CC(=O)Nc1cccc(NC(=O)Cn2cnc3c2c(=O)n(C)c(=O)n3C)c1,inactive,
CCNc1nc(SCCOc2ccccc2)nc(N(C)C)n1,"inconclusive: 11.2 µM [activator, single point]",
CSc1ccccc1C(=O)C1CCCN(C(=O)c2cncs2)C1 (centres undefined),"inconclusive: 25.1 µM [activator, single point]",
CSc1nsc(NC(=O)Cc2ccccc2)n1,"inconclusive: 31.6 µM [activator, single point]",
Cc1ccc(Cl)cc1N1CCN(C(=O)CSc2nnc3n2C(C)(C)Cc2ccccc2-3)CC1,"inconclusive: 31.6 µM [activator, single point]",
C/C(=N\Nc1nc(N2CCCCC2)nc(N2CCOCC2)n1)c1ccccc1O,"inconclusive: 17.8 µM [activator, single point]",
N#CCCCSc1nnnn1-c1cccc(Cl)c1,active: 22.4 µM,
CC1(C)CC(=O)C(Sc2ccccc2)=C(O)C1,"inconclusive: 20 µM [activator, single point]",
Cc1nc(-c2cccnc2)sc1C(=O)Nc1ccc(Cl)cc1,"inconclusive: 12.6 µM [activator, single point]",
Cc1ccc(-c2c[n+](Cc3ccc(Cl)cc3)c3n2CCC3)cc1,inactive,
CC(=O)c1cccc(N2C(=NC(=O)COc3ccccc3)SC3CS(=O)(=O)CC32)c1 (centres undefined),"inconclusive: 35.5 µM [activator, single point]",
COc1ccccc1CNS(=O)(=O)c1ccc(S(=O)(=O)NC2CC2)cc1,"inconclusive: 35.5 µM [activator, single point]",
